The results in this text go back to the RNAGym collection of RNA variant scans (doi:10.7554/elife.90254).

B1: LINE1-full (parent)
chain: UACGUAGGUGGUUUUCCCCUGAUAGUGCUAAGGGGGCCUGGAAGUUUGGACUGGGCAGAGCUCAACACAGCGUGGCAAAGUGGCUGUGGCUAGACUGCCUCUCUGGAUUCCUCGUCACUCAGCAGGGCAUCUCUGAGAGAAAUGCC

Read counts are not given, so values of variants with three or more changes are uncertain.

In the series the parent is B1. Nature of the series: self-cleavage, relative activity (ratio to wild type); higher = more cleavage; in vitro, sequencing; the parent is a self-cleaving ribozyme.
UACGUAGGUGGGUUUCCCCUGACAGUGCUAAGGGGGCCUGGAAGUUUGGACUGGGCAGAGCUCAACACAGCGUGGCAAAGUGGCUGUGGCUAGACUGCCUCUCUGGAUUCCUCGUCACACAGCAGGGCAUCUCUGAGAGAAAUGCC [U12G U23C U119A]: the self-cleavage worked out at 1.34. The value for UACGUAGGUGGGUUUCCCCUGAUAGUGCUAAGGGGGCCUGGAAGUUAGGACUGGGCAGAGCUCAACACAGCGUGGCGAAGUGGUUGUGGCUAGACCGCCUCUCUGGAUUCCUCGUCACUCAGCAGGGCGUCUCUGAGAGAAAUGCC [U12G U47A A77G C84U U96C A129G] was 0.53.

Consider UACGUAGGUGGGUUUCCCCUGAUAGCGCUAAGGGGGCCUGGAAGUUUGGACUGGGCAGAGCUCAACACAGCGUGGCAAAGUGGCUGUGGCUAGACUGCCUCUCUGGAUUCCUCGUCACUCAGCGGGGCAUCUCUGAGAGAAAAGCC [U12G U26C A124G U143A], for which the self-cleavage stood at 0.84.

UACGUAGGUGGGUUUCCCCCGAUAGUGCUAAGGGGGCCUGGAAGUUUGGACUGGGCAGAGCUCAGCACAGCGUGGCAAAGUGGCUGUGGCUAGACUGCCUCUCUGGAUUCCUUGUCACUCAGCAGGGCAUCUCUGAGAGAAACGCC [U12G U20C A65G C113U U143C]: the self-cleavage was found to be 0.28. Next, UACGUAGGUGGGUUUCCCCUGAUAGUGCUAAGGGGGCCCGGAAGUUUGGACUGGGAAGAGCUCAACACAGCGUGGCAAAGUGGCUGUGGCUAGACUGCCUCUCUGGAUUCCUCGUCACUCAGCAGGGCAUCUCUGAGAGAAAUGCC [U12G U39C C56A]: 0.17. The value for UACGUAGGUGGGUUUCCCCUGAUAGUGCUAAGGGGGCCUGGAAGCUUGGACUGGGCAGAGCUCAGCACAGCGUGGCAAAGUGGCUGUGACUGGACUGCCUCUCUGGAUUCCUCGUCACUCAGCAGGGCAUCUCUGAGAGAAAUGCC [U12G U45C A65G G89A A92G] was 0.13; that for UACGUAGGUGGGUUUCCCCCGAUAGUGCUAAGGGGGCCUGGAAGUUUGGACUGGGCAGAGCUCAACACAGCGUGGCAAAGUGGCGGUGGCUAGACUGCCUCUCUGGAUUCCUCGUCACUCAGCAGGGCAUCUCUGAGAGAAAUGCC [U12G U20C U85G] was 0.5; that for UACGUAGGUGGGUUUCCCCCGAUAGUGCUAAGGGGGCCUGGAAGUUUGGACUGGGCAGAGCUCAACGCAGCGUAGCAAAGUGGCUGUGGCUAGACUGCCUCUCUGGAUUCCUCGUCACUCAGCAGGGCAUCUCUGAGAGAAAUGCC [U12G U20C A67G G74A] was 0.74. On to UACGUAGGUGGGUUUCCCCUGAUAGUGCCAAGGGGGCCUGGAAGUUUGGACUGGGCAGAGCUCAACACAGCGUGGCAAAGUGGAUGUGGCUAGACUGCCUCUCUGGAUUCCUCGUCACUCAGCAGGGCAUCUCUGAGAGAAAUGCC [U12G U29C C84A], for which the self-cleavage was determined as 0.14. The value for UACGUAGGUGGGUUUCCCCUGAUAGUGCUAAGGGGGCCCGGAAGUUUGGACUGGGCAGAGCUCAACACAGCGUGGCAAAGAGGCUGUGGCUAGACUGCCUCUCUGGAUUCCUCGUCACUCAGCAGGGCUUCUCUGAGAGAGAUGCC [U12G U39C U81A A129U A141G] was 2.1; that for UACGUAGGUGGGUUUCCCCGGAUAGUGCUAGGGGGGCCUGGAAGUUUGGACUGGGCAGGGCUCAACACAGCGUGGCAAAGUGGCUGAGGCUAGACUGCCUCUCUGGAUUCCUCGUCACACAGCAGGGCAUCUCUGAGAGAAAUGCC [U12G U20G A31G A59G U87A U119A] was 0.71; that for UACGUAGGUGGGUUUCCCCUGACAGUGCUAAGGGGACCUGGAAGUUUGGACUGGGCAGAGCUCAACACAGCGUGGCAAAGUGGCUGUGGCUAGACUGCCUCUCUGGAUUCCUCGUCACUCAGCAGGGCAUCUCUGAGAGAAUUGCC [U12G U23C G36A A142U] was 1.17. The value for UACGUAGGUGGGUUUCCCCUGAUAGCGCUAAGGGGGCCUGGAAGUUUGGACUGGGCAGAGCUCAACACAGCGUGGCAAAGUGGCCGUGGCUAGACUGCCUCUCUGGGUUCCUCGUCACUCAGCAGGGCAUCUCUGAGAGAAAUGCC [U12G U26C U85C A107G] was 0. Regarding UACGUAGGUGGGUUUCCCCUGAUAGUGCUAAGGGGGCCUGGAAGUUCGGGCUGGGCAGUGCUCGACACAGCGUGGCAAAGUGGCUGUGGCUAGACUGCCUCUCUGGAUUCCUUGUCGUUCAGCAGGGCAUCUCUGAGAGAAAUGCC [U12G U47C A50G A59U A64G C113U A117G C118U], the self-cleavage was 0.44. Next, UACGUAGGUGGGUUUCCCCUGAUAGUGCAAAGGGGGCCUGGAAGUUUGGACUGGGCAGAGCUCAACACAGCGUGGCAAAGUGGCAGUGGCUAGACUGCCUCUCUGGACUCCUCGUCACUCAGCAGGGCAUCUCUGAGAGAAAUGCC [U12G U29A U85A U108C]: 0.29; UACGUAGGUGGGUUUCCCCUGAUAGCGCUAAGGGGGCCUGGAAGUUUGGACUGGGCAGAGCUGAACACAGCGUGGCAAAGUGGCUGUGGCUAGACUGCCUCUCUGGAUUCCUCGUCACUCAGCAGGGCAUCUCUGAGAGAAAUGCC [U12G U26C C63G]: 0.62. The value for UACGUAGGUGGGUUUCCCCUGAUAGUGCUAAGGGGGCCUGGAAGCUUGGACUGGGCAGAGCUCAACACAGCGUGGCAAAGUGGCUGUGGCUAGACUGCCUCUCUGGAUUCCUCGUCACUCGGCAGGGCAUCUCUGAGAGAAAUGCC [U12G U45C A121G] was 0.85.

For the variant UACGUAGGUGGGUUUCCCCUGAUAGUGCUAAGGGGGCCCGGAAGUUUGGACUGGGCAGAGCUCAACACAGCGUGGCAAAGUGGCUGUGGCUAGACUGCCUCUCUGGAUUCCUCGUCACUCAGCAAGGCAUCUCUGAGAGAAAUGCC [U12G U39C G125A], the self-cleavage is 1.34. The value for UACGUAGGUGGGUUUCCCCUGAUAGUGCUAAGGGGGCCUGGAAGCUUGGACUGGGCAGAGCUCAACACAGCGUGGCUAAGUGGCUGUGGCUAGACUGCCUCUCUGGAUUCCUCGUCACUCAGCAGGGCAUCUCUGAGAGAAAUGCC [U12G U45C A77U] was 1.21; that for UACGUAGGUGGGUUUCCCCUGAUAGUGCUAAGGGGGCCUGGAAGCUUGGACUGGGCAGAGCUCAACACAGCGUGGCGAAGUGGCUGUGGCUAGACUGCCUCUCUGGAUUCCUCGUCACUCAGCAGGGCAUCUCUGAGAGAAAUGCC [U12G U45C A77G] was 0.92.
